Assay results published in the supplement of paper PMC11417369.
± gives the standard deviation of the averaged measurements. Some of the results follow.

test system: PfAP2-I AP2 domain 3 (GST-tagged); assay: gcPBM binding intensity (ln(normalized median fluorescence intensity)); higher = stronger DNA binding
Procedure, shortened: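 DNA-binding domains from P. falciparum, fused to GST and produced in E. coli, were put on an Agilent 4 × 180k double-stranded probe array for 1 h in 1× PBS holding 1% milk, 0.2 mg/ml BSA, 0.5% salmon testes DNA and 0.03% Triton X-100. Probes were primer-extended, 36 bp long and drawn from intergenic genomic regions, with negative controls included. After Alexa488 anti-GST antibody detection and a 488 nm scan, binding intensity was set as the highest Masliner-normalised natural-log median intensity across replicate spots of either probe orientation.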

Row | Sequence | gcPBM binding intensity (ln)
1 | TGAAATTTTTATACATGTACAAAATTAAATATAACA [XGTACX_site7324] | 7.88 ± 0.5
2 | TATAATAATAATAATAGTACGTATTATTAAAAAACT [XGTACX_site10] | 7.79 ± 0.42
3 | ATATTACACATATATGCACACATTGTAGTTATTTAT [CACACA_site8843] | 9.34 ± 0.26
4 | TAATAAGTAAAAAAATGTACCCGTTAGGTTTAATAA [XGTACX_site638] | 7.59 ± 0.41
5 | AAAATAATATTTAATACACACACCAGTTCTGCAAAT [CACACA_site3736] | 7.93 ± 0.61
6 | ACAAAAAGGTAATTTACACACTGCATATAGGAATAA [CACACA_site2929] | 8.24 ± 0.71
7 | TTTTTCTCTCTCTTATTATACAACAACAAAAAAAAA [GTGCAC_negctrl_site178] | 7.85 ± 0.34
8 | AGAAATATATATATATATATATGTGACAATATTTGT [TGCATGCA_negctrl_site282] | 8.02 ± 0.61
9 | TTTTTTTATTTTATTTTATTATCTTATGTATCACAA [CACACA_negctrl_site1755] | 7.75 ± 0.57
10 | TTTGTTCATATTATTGTGCACTTAAACGTAACAAAA [GTGCAC_site9505] | 11.3 ± 0.39
11 | TTTATATTCTTAAGTGTGCACTATATATATATATAT [GTGCAC_site9719] | 11.2 ± 0.23
12 | ACCCTATATGTAACTACACACCGCATATTGTTTACT [CACACA_site3071] | 8.34 ± 0.65
13 | AATGTAGCATTTTATCGTACACTTAATACAAAAAAG [XGTACX_site6214] | 7.89 ± 0.33
14 | ATGTATGTATATACTTGTACATATTCATATTAGTAT [XGTACX_site1118] | 7.66 ± 0.39
15 | TATCATGTCTGTATTTCACACACGGATAATCATTTA [CACACA_site920] | 7.57 ± 0.65
16 | AAAAATAAAATATATACATGCATATACATATTATAT [TGCATGCA_site668] | 7.87 ± 0.45
17 | TGTTATATTTAATATAGTACATATTATTTTATATAT [XGTACX_site70] | 7.58 ± 0.29
18 | TATTCTATATTTCTATTTAGAAAACATCCCAGTGTG [GTGCAC_negctrl_site184] | 7.54 ± 0.49
19 | ATGTATATAATAAGAACACACATATATTTAATTTAA [CACACA_site2941] | 7.42 ± 0.48

Row | Sequence | gcPBM binding intensity (ln)
20 | ATACATATATACATACGTACTTATATACATATGTGC [XGTACX_site5268] | 7.82 ± 0.52
21 | AGAAAATTAAAAAGAACACACAAATATATATAGAAT [CACACA_site3592] | 7.85 ± 0.79
22 | ATTTATATGCACCATTGTACGTTTTATAAAGTTTGG [XGTACX_site3755] | 11.6 ± 0.83
23 | TTATTATGCTGAGTACGTACTTATATAAGAATAGCA [XGTACX_site2955] | 8.09 ± 0.48
24 | TAAGTTCACAAAAAAAAAAAAAAATAAAGAAATAAA [CACACA_negctrl_site825] | 7.37 ± 0.49
25 | AAATTATTTCCGTGTACACATAAATATATATTTTAT [CACACA_site5121] | 8.91 ± 0.35
26 | TAAAATATTACGTGTACACATAAATAAAAATAAAAA [CACACA_site5066] | 8.4 ± 0.2
27 | TTTTATATTCCACAAAAAATTATATAATAATAGAAC [CACACA_negctrl_site1741] | 8.31 ± 0.3
28 | GTAATATATACAAAATGTACAAAACAATAACATGAT [XGTACX_site8575] | 7.96 ± 0.75
29 | ATCCAAACAAATAAAACATGCATAATATATATATAT [TGCATGCA_site766] | 9.19 ± 0.099
30 | CTCAAATAATTTTTTACACACATTATTTGAAATAAG [CACACA_site1290] | 7.76 ± 0.47
31 | ATGCTTTTATAAATAATTAAAAAAAAAAAAAAAAAA [TGCATGCA_negctrl_site533] | 7.79 ± 0.51
32 | TTTTTTTTTAATATTTGTACACAACATGAAACATTT [XGTACX_site473] | 8.16 ± 0.53
33 | AATAGAAAAAAATAAGTGCATTTTGGTATTCATCAT [GTGCAC_site9614] | 9.26 ± 0.23
34 | GATATTGAGAAAGGGTGTACAAGATATTATACTATA [XGTACX_site3598] | 7.92 ± 0.4
35 | TTTTATGTAATTATTTGTACATATGCCTCTTAAACT [XGTACX_site748] | 7.68 ± 0.83
36 | ACATAAATAATAAAAACACACATATGTACATATATA [CACACA_site1913] | 7.84 ± 0.23
37 | AAATTTATATTCATTTGTACGTAATTTAAATTATAC [XGTACX_site5870] | 7.9 ± 0.3
38 | ACAAAATATACAAAATGTACAAAATTTACAAAATGT [XGTACX_site3544] | 7.59 ± 0.64

Row | Sequence | gcPBM binding intensity (ln)
39 | AAAAAAAAAAAGCACACACACATATGTGTATTTATA [CACACA_site6578] | 8.04 ± 0.22
40 | TACTAGCAAATACATACACACACACCCATATACATA [CACACA_site9163] | 7.99 ± 0.32
41 | AAAAAAAAAAAAAACACACACACACCCATACAAAAT [CACACA_site1446] | 8.53 ± 0.5
42 | ATGCACTCATTGTGCACACGCATATTACGAAAAGAA [CACACA_site2638] | 10.6 ± 0.18
43 | AAGATTTGAAAAAATACACACAATAAAAAAATAAAA [CACACA_site3281] | 7.64 ± 0.57
44 | TATATATATATGTGTATACACACCTGATAAAGGTAT [CACACA_site2653] | 9.34 ± 0.13
45 | AATAAATAAAAAACATGTACAAATATAATATAGCAT [XGTACX_site6429] | 8.12 ± 0.94
46 | TATTTAACACCTTATACACACTTTCTTCCTTTTTTA [CACACA_site4590] | 8.19 ± 0.57
47 | TATACATATGAAAATACACACATACATACCTATATA [CACACA_site6888] | 7.73 ± 0.33
48 | TAATTGTACGCCAATACACACAGAATTATAATGTAG [CACACA_site6201] | 8.14 ± 0.57
49 | TATAATATAATTAAAAGTACTTAAAAAAGAATGAAA [XGTACX_site1157] | 8.09 ± 0.46
50 | TGTTTATATAATATTCTACACACCAACAACAAACAT [CACACA_site8087] | 8.465 ± 0.078
51 | TATTTTTATAAAAATCGTACAAGTGATCCAATTTTT [XGTACX_site4402] | 7.75 ± 0.29
52 | TTTTTAAAACATATCACACATATATATATATATATA [CACACA_site5991] | 9.39 ± 0.62
53 | CCGTATTCAAAAAGGAGTACACAATTATATGTTATA [XGTACX_site641] | 8.05 ± 0.28
54 | ATATGAGAGAATAAAACACACAAAAAAAAAAAAAAA [CACACA_site2865] | 7.97 ± 0.79
55 | TAATAATCAAGTTAACGTACAAAATCATCTATAGAA [XGTACX_site5921] | 8.03 ± 0.13
56 | GTAGCCTTTCTTTATAAAGGCAAACAAACAAAAAAT [CACACA_negctrl_site1491] | 8.01 ± 0.59
